From the supplement of paper PMC4604168 (melanoma cell lines)
Some of the results follow. Single values are uncertain, as repeats are few or missing.

Assays:
Assay in all cases: cell count relative to DMSO control; melanoma cells; higher = more viable cells
Details in all cases: library dose: standard library concentration; 72 h
SkMel28 = tested on: SkMel28
SkMel2 = tested on: SkMel2
SkMel30 = tested on: SkMel30
SkMel5 = tested on: SkMel5
UACC257 = tested on: UACC257
UACC62 = tested on: UACC62
WM115 = tested on: WM115
WM1716 = tested on: WM1716
WM1745 = tested on: WM1745
WM3526 = tested on: WM3526
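Also: cells treated in 1,536-well plates, then fixed and DAPI-stained, with nuclei counted from automated high-throughput microscope images.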

SMILES	cell count (SkMel28)	cell count (SkMel2)	cell count (SkMel30)	cell count (SkMel5)	cell count (UACC257)	cell count (UACC62)	cell count (WM115)	cell count (WM1716)	cell count (WM1745)	cell count (WM3526)
NC(=O)c1ccc(N(C(N)=O)c2c(F)cccc2F)nc1-c1ccc(F)cc1F + CN(NC(=O)CC(=O)NN(C)C(=S)c1ccccc1)C(=S)c1ccccc1 [STA4783] (first compound 2 µM, partner dose 0.03 µM)	34%	62.7%	72.3%	53.5%	93.6%	47.3%	24.8%	72.6%	24.8%	82.6%
CN(NC(=O)CC(=O)NN(C)C(=S)c1ccccc1)C(=S)c1ccccc1 + CCN(CC)CCCCNc1ncc2cc(-c3cc(OC)cc(OC)c3)c(NC(=O)NC(C)(C)C)nc2n1 [PD173074] (first compound 0.03 µM, partner dose 0.5 µM)	28.9%	76.7%	78.6%	34.3%	95.7%	49.4%	20.4%	86.3%	17.3%	76.2%
Cc1ccc(NC(=O)c2cccc(N(C)C)c2)cc1NC(=O)c1ccc(O)cc1 + Cn1cncc1[C@@](N)(c1ccc(Cl)cc1)c1ccc2c(c1)c(-c1cccc(Cl)c1)cc(=O)n2C [tipifarnib] (first compound 10 µM, partner dose 0.05 µM)	77.9%	72.6%	104%	67.1%	87.4%	78.3%	77.1%	78.4%	91.7%	71.7%
COc1cc2c(Oc3ccc4[nH]c(C)cc4c3F)ncnc2cc1OCCCN1CCCC1 [cediranib] + COc1ccc(COc2ccc(Cc3cnc(N)nc3N)cc2OC)cc1 [GW2580] (first compound 2 µM, partner dose 5 µM)	94.3%	91.5%	76.7%	73.8%	83.4%	89.7%	87.2%	101%	105%	73%
Cc1ccc(NC(=O)c2cccc(N(C)C)c2)cc1NC(=O)c1ccc(O)cc1 + CCCCCCCCCCCC1=C(O)C(=O)C=C(O)C1=O [Embelin] (first compound 10 µM, partner dose 6 µM)	108%	87.1%	113%	99.4%	86%	110%	89.5%	88.3%	62.6%	94.8%
Cc1ccc(NC(=O)c2cccc(N(C)C)c2)cc1NC(=O)c1ccc(O)cc1 + c1cc(-c2cnn3cc(-c4ccc(OCCN5CCCCC5)cc4)cnc23)ccn1 [Dorsomorphin] (first compound 10 µM, partner dose 2 µM)	66.4%	81.1%	90.2%	75.2%	101%	100%	90.7%	113%	49.7%	81.1%
CC(C)(C)c1cnc(CSc2cnc(NC(=O)C3CCNCC3)s2)o1 + O=c1cc(-c2cccc3c2Sc2ccccc2S3)oc(N2CCOCC2)c1 [KU55933] (first compound 0.05 µM, partner dose 5 µM)	63.8%	70.5%	89.6%	68.2%	88.3%	63%	91%	75.4%	90.4%	66.8%
Cc1ccc(NC(=O)c2cccc(N(C)C)c2)cc1NC(=O)c1ccc(O)cc1 + O=C(Nc1ccccc1)c1cc([N+](=O)[O-])ccc1Cl [GW9662] (first compound 10 µM, partner dose 10 µM)	71.1%	89.2%	86%	76.8%	79.6%	84.4%	67.6%	77.1%	56.8%	91.3%
Cc1ccc(NC(=O)c2cccc(N(C)C)c2)cc1NC(=O)c1ccc(O)cc1 + N#Cc1c(O)c2c(-c3ccc(-c4ccccc4O)cc3)csc2[nH]c1=O [A769662] (first compound 10 µM, partner dose 10 µM)	99.4%	89.1%	109%	112%	99.2%	127%	97.5%	100%	72.3%	94.3%
CC(C)(C)c1cnc(CSc2cnc(NC(=O)C3CCNCC3)s2)o1 + CN(C)S(=O)(=O)c1ccc2c(c1)/C(=C/c1cc3c([nH]1)CCCC3)C(=O)N2 [SU6656] (first compound 0.05 µM, partner dose 2 µM)	50.1%	88.2%	84%	75.6%	76.7%	54.1%	56.5%	58%	58.4%	94%
NC(=O)c1ccc(N(C(N)=O)c2c(F)cccc2F)nc1-c1ccc(F)cc1F + COCC[n+]1c2c(n(Cc3cnccn3)c1C)C(=O)c1ccccc1C2=O [YM155] (first compound 2 µM, partner dose 0.002 µM)	47%	32.7%	89.3%	41.5%	29%	59.3%	74.9%	72.3%	87.8%	53%
NC(=O)c1ccc(N(C(N)=O)c2c(F)cccc2F)nc1-c1ccc(F)cc1F + C[C@]1(c2nc3c(C(N)=O)cccc3[nH]2)CCCN1 [Veliparib] (first compound 2 µM, partner dose 7 µM)	68.9%	84.2%	89.3%	59.7%	94.3%	51.9%	63.9%	100%	81%	75.6%
CCc1ccc(CCOc2ccc(CC3SC(=O)NC3=O)cc2)nc1 (stereo not given) [pioglitazone] + Cc1cc([N+](=O)[O-])ccc1NS(=O)(=O)c1cc(Cl)ccc1Cl [FH535] (first compound 10 µM, partner dose 5 µM)	62.9%	96.7%	87.8%	76.3%	70.3%	106%	83.9%	88.8%	72.5%	74.5%
Cc1ccc(NC(=O)c2cccc(N(C)C)c2)cc1NC(=O)c1ccc(O)cc1 + Cn1cc(/C=C2\C(=O)Nc3cccnc32)c2ccccc21 [GW441756] (first compound 10 µM, partner dose 2 µM)	80.7%	90.4%	86.6%	84.6%	84.7%	96.7%	99.7%	105%	70.6%	92.9%
Cc1ccc(NC(=O)c2cccc(N(C)C)c2)cc1NC(=O)c1ccc(O)cc1 + NC(=O)Nc1cc(-c2cccc(F)c2)sc1C(=O)N[C@H]1CCCNC1 [AZD7762] (first compound 10 µM, partner dose 0.1 µM)	24.6%	79.1%	101%	109%	104%	65.7%	65.9%	66.7%	44.2%	58.1%
CCCCCCCCc1ccc(CCC(N)(CO)CO)cc1 [fingolimod] + CNC(=O)c1cc(Oc2ccc(NC(=O)Nc3ccc(Cl)c(C(F)(F)F)c3)cc2)ccn1 [sorafenib] (first compound 10 µM, partner dose 2 µM)	0.76%	0.091%	9.59%	28.5%	54%	9.82%	10.7%	13.4%	2.6%	9.93%
CCc1ccc(CCOc2ccc(CC3SC(=O)NC3=O)cc2)nc1 (stereo not given) [pioglitazone] + O=C(Nc1ccccc1)c1cc([N+](=O)[O-])ccc1Cl [GW9662] (first compound 10 µM, partner dose 10 µM)	76.1%	78.8%	68.3%	75.8%	83.9%	68.9%	84.7%	106%	74.9%	92.8%
Cc1ccc(NC(=O)c2cccc(N(C)C)c2)cc1NC(=O)c1ccc(O)cc1 + O=c1cc(-c2cccc3c2Sc2ccccc2S3)oc(N2CCOCC2)c1 [KU55933] (first compound 10 µM, partner dose 5 µM)	72.2%	84.3%	72%	87.1%	89.9%	77.7%	97.7%	121%	92.5%	79%
NC(=O)c1ccc(N(C(N)=O)c2c(F)cccc2F)nc1-c1ccc(F)cc1F + Cn1c(Nc2ccc(C(F)(F)F)cc2)nc2cc(Oc3ccnc(-c4ncc(C(F)(F)F)[nH]4)c3)ccc21 [CHIR265] (first compound 2 µM, partner dose 0.4 µM)	40.2%	59.6%	67.8%	47.9%	92.4%	44.5%	51.2%	75.9%	60.4%	66%
Cc1ccc(NC(=O)c2cccc(N(C)C)c2)cc1NC(=O)c1ccc(O)cc1 + Cc1cc(N2CCOCC2)cc2[nH]c(-c3c(NC[C@@H](O)c4cccc(Cl)c4)cc[nH]c3=O)nc12 [BMS536924] (first compound 10 µM, partner dose 1 µM)	95%	49.8%	109%	64.1%	99.9%	113%	76.2%	107%	50.7%	70.7%
NC(=O)c1ccc(N(C(N)=O)c2c(F)cccc2F)nc1-c1ccc(F)cc1F + Cc1ccc(NC(=O)c2cccc(N(C)C)c2)cc1NC(=O)c1ccc(O)cc1 [ZM336372] (first compound 2 µM, partner dose 10 µM)	75%	81.2%	96.4%	68.9%	91.7%	76.8%	80.9%	90%	94.8%	66.4%
Cc1ccc(NC(=O)c2cccc(N(C)C)c2)cc1NC(=O)c1ccc(O)cc1 + COc1cc2ncnc(Nc3ccc(Oc4ccccc4)cc3)c2cc1OC [SrcI1] (first compound 10 µM, partner dose 10 µM)	41.8%	88.5%	103%	66.9%	61.8%	73.2%	67.6%	78.1%	41.3%	55.1%
Cc1ccc(NC(=O)c2cccc(N(C)C)c2)cc1NC(=O)c1ccc(O)cc1 + C[C@@H]1CCN(C(=O)CC#N)C[C@@H]1N(C)c1ncnc2[nH]ccc12 [CP690550] (first compound 10 µM, partner dose 5 µM)	66.4%	85.9%	118%	86.1%	94.6%	121%	96.8%	102%	71.9%	85.1%
CCCCCCCCc1ccc(CCC(N)(CO)CO)cc1 [fingolimod] + Nc1ccn([C@@H]2O[C@H](CO)[C@@H](O)C2(F)F)c(=O)n1 [gemcitabine] (first compound 10 µM, partner dose 0.002 µM)	13.7%	56%	26.3%	66.3%	77.8%	31.5%	34.1%	43.1%	49.4%	43.8%
